{"source": "the supplement of paper PMC8728848", "test_in_all_cases": "glycan array binding signal (z-score within array); higher = stronger binding", "conditions_in_all_cases": "glycan notation: IUPAC condensed, linker removed", "key": {"[1]": {"molecular_target": "Gal(b1-3)GlcNAc(b1-2)Man(a1-3)[Gal(b1-3)GlcNAc(b1-2)Man(a1-6)]Man(b1-4)GlcNAc(b1-4)[Fuc(a1-6)]GlcNAc", "outline": "(§1)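 Glycan array binding is given as a within-array Z-score, which can be read as non-binding when negative. The arrays, 3228 of them, came from the Consortium for Functional Glycomics database and were retained only where the protein sequence was available. Z-scores were averaged across arrays of the same protein sequence at different concentrations or buffers and across linkers.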"}, "[2]": {"molecular_target": "Gal(b1-3)GlcNAc(b1-2)Man(a1-3)[GlcNAc(b1-4)][Gal(b1-3)GlcNAc(b1-2)Man(a1-6)]Man(b1-4)GlcNAc(b1-4)GlcNAc", "outline": "as §1"}, "[3]": {"molecular_target": "Gal(b1-3)GlcNAc(b1-2)[Gal(b1-3)GlcNAc(b1-6)]Man(a1-6)[Gal(b1-3)GlcNAc(b1-2)Man(a1-3)]Man(b1-4)GlcNAc(b1-4)GlcNAc", "outline": "as §1"}, "[4]": {"molecular_target": "Gal(b1-3)GlcNAc(b1-3)Gal(b1-3)GlcNAc", "outline": "as §1"}, "[5]": {"molecular_target": "Gal(b1-3)GlcNAc(b1-3)Gal(b1-4)Glc", "outline": "as §1"}, "[6]": {"molecular_target": "Gal(b1-3)GlcNAc(b1-3)Gal(b1-4)GlcNAc", "outline": "as §1"}, "[7]": {"molecular_target": "Gal(b1-3)GlcNAc(b1-3)Gal(b1-4)GlcNAc(b1-2)Man(a1-3)[Gal(b1-3)GlcNAc(b1-3)Gal(b1-4)GlcNAc(b1-2)Man(a1-6)]Man(b1-4)GlcNAc(b1-4)GlcNAc", "outline": "as §1"}, "[8]": {"molecular_target": "Gal(b1-3)GlcNAc(b1-3)Gal(b1-4)GlcNAc(b1-2)[Gal(b1-3)GlcNAc(b1-3)Gal(b1-4)GlcNAc(b1-6)]Man(a1-6)[Gal(b1-3)GlcNAc(b1-3)Gal(b1-4)GlcNAc(b1-2)Man(a1-3)]Man(b1-4)GlcNAc(b1-4)[Fuc(a1-6)]GlcNAc", "outline": "as §1"}, "[9]": {"molecular_target": "Gal(b1-3)GlcNAc(b1-3)Gal(b1-4)GlcNAc(b1-3)Gal(b1-4)GlcNAc(b1-2)[Gal(b1-3)GlcNAc(b1-3)Gal(b1-4)GlcNAc(b1-3)Gal(b1-4)GlcNAc(b1-6)]Man(a1-6)[Gal(b1-3)GlcNAc(b1-3)Gal(b1-4)GlcNAc(b1-3)Gal(b1-4)GlcNAc(b1-2)Man(a1-3)]Man(b1-4)GlcNAc(b1-4)[Fuc(a1-6)]GlcNAc", "outline": "as §1"}, "[10]": {"molecular_target": "Gal(b1-3)GlcNAc(b1-3)Gal(b1-4)GlcNAc(b1-6)[Gal(b1-3)GlcNAc(b1-3)]Gal(b1-4)Glc", "outline": "as §1"}, "[11]": {"molecular_target": "Gal(b1-3)GlcNAc(b1-3)Gal(b1-4)[Fuc(a1-3)]GlcNAc", "outline": "as §1"}, "[12]": {"molecular_target": "Gal(b1-3)GlcNAc(b1-3)Gal(b1-4)[Fuc(a1-3)]GlcNAc(b1-6)[Gal(b1-3)GlcNAc(b1-3)]Gal(b1-4)Glc", "outline": "as §1"}, "[13]": {"molecular_target": "Gal(b1-3)GlcNAc(b1-3)GalNAc", "outline": "as §1"}, "[14]": {"molecular_target": "Gal(b1-3)GlcNAc(b1-6)Gal(b1-4)GlcNAc", "outline": "as §1"}, "[15]": {"molecular_target": "Gal(b1-3)GlcNAc(b1-6)GalNAc", "outline": "as §1"}, "[16]": {"molecular_target": "Gal(b1-3)GlcNAc(b1-6)[Gal(b1-3)]GalNAc", "outline": "as §1"}, "Gal(b1-3)GlcNAc6S": {"molecular_target": "Gal(b1-3)GlcNAc6S", "outline": "as §1"}, "[17]": {"molecular_target": "Gal(b1-3)[Fuc(a1-4)]GlcNAc", "outline": "as §1"}, "[18]": {"molecular_target": "Gal(b1-3)[Fuc(a1-4)]GlcNAc(b1-2)Man", "outline": "as §1"}, "[19]": {"molecular_target": "Gal(b1-3)[Fuc(a1-4)]GlcNAc(b1-2)Man(a1-3)[Gal(b1-3)[Fuc(a1-4)]GlcNAc(b1-2)Man(a1-6)]Man(b1-4)GlcNAc(b1-4)[Fuc(a1-6)]GlcNAc", "outline": "as §1"}, "[20]": {"molecular_target": "Gal(b1-3)[Fuc(a1-4)]GlcNAc(b1-3)Gal(b1-3)[Fuc(a1-4)]GlcNAc", "outline": "as §1"}, "[21]": {"molecular_target": "Gal(b1-3)[Fuc(a1-4)]GlcNAc(b1-3)Gal(b1-4)[Fuc(a1-3)]GlcNAc", "outline": "as §1"}, "[22]": {"molecular_target": "Gal(b1-3)[Fuc(a1-4)]GlcNAc(b1-6)GalNAc", "outline": "as §1"}, "[23]": {"molecular_target": "Gal(b1-3)[GlcNAc(b1-6)]GalNAc", "outline": "as §1"}, "[24]": {"molecular_target": "Gal(b1-3)[Neu5Ac(a2-6)]GalNAc", "outline": "as §1"}, "[25]": {"molecular_target": "Gal(b1-3)[Neu5Ac(a2-6)]GlcNAc(b1-4)Gal(b1-4)Glc", "outline": "as §1"}, "[26]": {"molecular_target": "Gal(b1-3)[Neu5Ac(b2-6)]GalNAc", "outline": "as §1"}, "Gal(b1-4)Gal": {"molecular_target": "Gal(b1-4)Gal", "outline": "as §1"}, "[27]": {"molecular_target": "Gal(b1-4)GalNAc(a1-3)[Fuc(a1-2)]Gal(b1-4)GlcNAc", "outline": "as §1"}, "[28]": {"molecular_target": "Gal(b1-4)GalNAc(b1-3)[Fuc(a1-2)]Gal(b1-4)GlcNAc", "outline": "as §1"}, "Gal(b1-4)Glc": {"molecular_target": "Gal(b1-4)Glc", "outline": "as §1"}, "Gal(b1-4)Glc6S": {"molecular_target": "Gal(b1-4)Glc6S", "outline": "as §1"}, "Gal(b1-4)GlcNAc": {"molecular_target": "Gal(b1-4)GlcNAc", "outline": "as §1"}, "[29]": {"molecular_target": "Gal(b1-4)GlcNAc(a1-6)Gal(b1-4)GlcNAc", "outline": "as §1"}, "Gal(b1-4)GlcNAc(b1-2)Man": {"molecular_target": "Gal(b1-4)GlcNAc(b1-2)Man", "outline": "as §1"}, "[30]": {"molecular_target": "Gal(b1-4)GlcNAc(b1-2)Man(a1-3)Man(b1-4)GlcNAc(b1-4)GlcNAc", "outline": "as §1"}, "[31]": {"molecular_target": "Gal(b1-4)GlcNAc(b1-2)Man(a1-3)[Gal(b1-4)GlcNAc(b1-2)Man(a1-6)]Man(b1-4)GlcNAc(b1-4)GlcNAc", "outline": "as §1"}}, "note": "Some of the results follow.", "data": [{"binder": "SP16663B-bot-321-25-321 (Bacteroides ovatus) (protein) DDDDEVTMNSKFYLSTKVFPVDSYEASLSVILKDNSVVVNELQPNYRFVACATERLSKDVKITADSDDNLVSAYNKANDTEYNILPAENYSFTNKTVTIENGESVSGDSIKIELLNVGSLTTEGGYLLPVTISSIEGNNLDALSSNRGVVYLKIQNIHVNVESGQPAEGTLIADRSGWTVKVAPTTRGDAKNLIDGTNSDVARDGGAEYWLTVDIGKVQTLTGIRNKCYASSYSPTAVEVFTSSDGAKWKSIGAVTISKSGTQYIKFSKAVETRYLKYYVKQGPNTVSLTEFDLYAK", "values": [{"measurement": "glycan array binding signal (z-score)", "setting": "[1]", "result": -0.328}, {"measurement": "glycan array binding signal (z-score)", "setting": "[2]", "result": 0.338}, {"measurement": "glycan array binding signal (z-score)", "setting": "[3]", "result": -0.439}, {"measurement": "glycan array binding signal (z-score)", "setting": "[4]", "result": -0.414}, {"measurement": "glycan array binding signal (z-score)", "setting": "[5]", "result": -0.175}, {"measurement": "glycan array binding signal (z-score)", "setting": "[6]", "result": -0.115}, {"measurement": "glycan array binding signal (z-score)", "setting": "[7]", "result": 0.244}, {"measurement": "glycan array binding signal (z-score)", "setting": "[8]", "result": 0.785}, {"measurement": "glycan array binding signal (z-score)", "setting": "[9]", "result": 0.723}, {"measurement": "glycan array binding signal (z-score)", "setting": "[10]", "result": -0.158}, {"measurement": "glycan array binding signal (z-score)", "setting": "[11]", "result": -0.566}, {"measurement": "glycan array binding signal (z-score)", "setting": "[12]", "result": -0.65}, {"measurement": "glycan array binding signal (z-score)", "setting": "[13]", "result": -0.56}, {"measurement": "glycan array binding signal (z-score)", "setting": "[14]", "result": 0.637}, {"measurement": "glycan array binding signal (z-score)", "setting": "[15]", "result": -0.455}, {"measurement": "glycan array binding signal (z-score)", "setting": "[16]", "result": 0.344}, {"measurement": "glycan array binding signal (z-score)", "setting": "Gal(b1-3)GlcNAc6S", "result": -0.23}, {"measurement": "glycan array binding signal (z-score)", "setting": "[17]", "result": -0.144}, {"measurement": "glycan array binding signal (z-score)", "setting": "[18]", "result": -0.443}, {"measurement": "glycan array binding signal (z-score)", "setting": "[19]", "result": 0.571}, {"measurement": "glycan array binding signal (z-score)", "setting": "[20]", "result": -0.238}, {"measurement": "glycan array binding signal (z-score)", "setting": "[21]", "result": -0.212}, {"measurement": "glycan array binding signal (z-score)", "setting": "[22]", "result": 0.377}, {"measurement": "glycan array binding signal (z-score)", "setting": "[23]", "result": -0.336}, {"measurement": "glycan array binding signal (z-score)", "setting": "[24]", "result": -0.334}, {"measurement": "glycan array binding signal (z-score)", "setting": "[25]", "result": -0.235}, {"measurement": "glycan array binding signal (z-score)", "setting": "[26]", "result": 0.638}, {"measurement": "glycan array binding signal (z-score)", "setting": "Gal(b1-4)Gal", "result": -0.38}, {"measurement": "glycan array binding signal (z-score)", "setting": "[27]", "result": -0.546}, {"measurement": "glycan array binding signal (z-score)", "setting": "[28]", "result": -0.358}, {"measurement": "glycan array binding signal (z-score)", "setting": "Gal(b1-4)Glc", "result": 0.09}, {"measurement": "glycan array binding signal (z-score)", "setting": "Gal(b1-4)Glc6S", "result": -0.104}, {"measurement": "glycan array binding signal (z-score)", "setting": "Gal(b1-4)GlcNAc", "result": -0.31}, {"measurement": "glycan array binding signal (z-score)", "setting": "[29]", "result": 0.302}, {"measurement": "glycan array binding signal (z-score)", "setting": "Gal(b1-4)GlcNAc(b1-2)Man", "result": 0.446}, {"measurement": "glycan array binding signal (z-score)", "setting": "[30]", "result": -0.034}, {"measurement": "glycan array binding signal (z-score)", "setting": "[31]", "result": -0.627}]}]}
